Reference: PubChem BioAssay (Tox21)
Several values for one entry are separate records, joined by “and”; a condition that tells them apart may be missing. Equal entries are not always repeated. The shares of active, inactive and inconclusive entries below differ from those in the screen. Potencies of inconclusive entries are doubtful fits and often do not repeat. Where a structure was tested more than once in an assay, its records may differ in their call. Activity calls are given as the source filed them. Calls come from the whole dose curve; as a rule, active = well fitted cell-killing curve with a large enough effect in the repeat runs; inconclusive = weak or mixed curves, or effect the other way; inactive = flat fitted curve, though single readings scatter.

Assay: qHTS assay to identify small molecule agonists of the androgen receptor (AR) signaling pathway in the presence of an antagonist - cell viability counter screen (AID 1259379); note: nearly all actives have a fitted effect of over 25% in size
Conditions: MDA-kb2 viability, CellTiter-Fluor, 16 h; series mostly up to 92.4 µM; activity change, negative = cytotoxicity: at the top concentration
From the text: National Center for Advancing Translational Sciences [NCATS]
NIH Chemical Genomics Center [NCGC]
U.S. Environmental Protection Agency [EPA]
National Institutes of Environmental Health Sciences [NIEHS]
National Toxicology Program [NTP]
U.S. Food and Drug Administration [FDA]
Androgen receptor (AR) is an important member of nuclear receptor family. Its signaling plays a critical role in AR-dependent prostate cancer and other androgen related diseases. Considerable attention has been given in the past decades to develop methods to study and screen for the environmental chemicals that have the potential to interfere with metabolic homeostasis, reproduction, developmental and behavioral functions. Therefore AR binding assay for screening against androgen agonists and antagonists can be used to identify potential endocrine disruptors.
MDA-kb2 cells (from ATCC, deposited by Wilson et al.) are human breast carcinoma cells that were stably transfected with a luciferase reporter gene under control of the MMTV promoter that contains response elements for both androgen receptor (AR) and glucocorticoid receptor (GR). This particular screening for measuring luciferase reporter gene activity using MDA-kb2 cells against Tox21 10K library compounds is a confirmation study on agonist mode screening in the presence of AR-antagonist compound (Nilutamide) at 3.0uM final concentration. The cytotoxicity of the compounds was tested in parallel by measuring the cell viability using CellTiter-Fluor assay system (Promega, Madison, WI) in the same wells.
Tox21 Assay Protocol Summary:
MDA-kb2 cells (cells cultured without CO2) were dispensed at 3,000 cells/well in 4uL of culture medium into white wall/solid-bottom 1536-well plates (Corning Life Sciences, Corning, NY) using a Multidrop Combi (Thermo Fisher Scientific Inc., Waltham, MA) dispenser. The assay plates were incubated at 37C and 0% CO2 for 5hr. One uL of 3.0uM (final concentration) Nilutamide or assay buffer was added using two separate tips of Flying Reagent Dispenser (FRD, Aurora Discovery, San Diego, CA). Then 23nL of compounds dissolved in DMSO at 15 concentrations and positive controls were transferred to the assay plates using a Pintool station (Wako, San Diego, CA). The assay plates were incubated at 37C and 0% CO2 for 16 hr. After 15hr incubation at 37C, 1uL/well CellTiter-Fluor reagent (Promega Corporation) was added to each well of the assay plates using FRD. After 1hr incubation at 37C and 0% CO2, the fluorescence signal was measured using a ViewLux plate reader (PerkinElmer, Shelton, CT).
% is set by controls: 0 for no effect and ±100 for the full control effect; potency is the fitted concentration of half-maximal effect; tags give direction and shape of the fitted curve.

| Structure (SMILES) | Potency | activity change, negative = cytotoxicity |
| --- | --- | --- |
| CCN(CC)CCNC(=O)c1c(C)[nH]c(/C=C2\C(=O)Nc3ccc(F)cc32)c1C | active: 29.8 µM |  |
| Cc1ccc(CO)cc1 |  | inactive: -1.3% |
| N=C1N=C(N)c2ccccc21 | inconclusive: 61.1 µM [cytotoxic, partial curve] |  |
| Nc1c2c(nc3ccccc13)CCCC2 | inconclusive: 68.6 µM [cytotoxic] and inconclusive: 77 µM [cytotoxic, single point] |  |
| CCCCCCCCCCCC[N+](C)(C)CCCCCCCCCCCC | active: 30.6 µM |  |
| CC(CN(C)C)CN1c2ccccc2CCc2ccccc21 (stereo not given) | inconclusive: 33.5 µM [cytotoxic, single point] |  |
| C1CN(SSN2CCOCC2)CCO1 | inactive and inconclusive: 68.6 µM [cytotoxic, single point] |  |
| CCCCCCCCCCCCCCCC[N+](C)(C)CCN(Cc1ccc(OC)cc1)c1ncccn1 | inconclusive: 33.5 µM [cytotoxic] |  |
| CCOC(=O)c1ccccc1C(=C1C=C(Br)C(=O)C(Br)=C1)c1cc(Br)c(O)c(Br)c1 | inconclusive: 40.7 µM [cytotoxic, partial curve] |  |
| C=C1CC[C@H](O)C/C1=C\C=C1/CCC[C@]2(C)[C@@H]([C@H](C)CCCC(C)C)CC[C@@H]12 | inconclusive: 76.3 µM [cytotoxic, single point] |  |
| C=C(CC)C(=O)c1ccc(OCC(=O)O)c(Cl)c1Cl | inconclusive: 33.5 µM [cytotoxic, single point] |  |
| CCc1nc(N)nc(N)c1-c1ccc(Cl)cc1 | inconclusive: 69.6 µM [cytotoxic, single point] and inconclusive: 68.6 µM [cytotoxic, partial curve, poor fit] |  |
| CC(C)(C)CC(=O)OCC(=O)[C@@]1(O)CC[C@H]2[C@@H]3CCC4=CC(=O)C=C[C@]4(C)[C@H]3[C@@H](O)C[C@@]21C |  | inactive: -8.24% [at 42.5 µM] |
| C=CCNc1nc(NCC=C)nc(N2CCN(C(c3ccc(F)cc3)c3ccc(F)cc3)CC2)n1 | inconclusive: 29.8 µM [cytotoxic, single point] |  |
| Cc1cc(C2CCCCC2)n(O)c(=O)c1 | inconclusive: 21.1 µM [cytotoxic, partial curve, poor fit] |  |
| CCCCN(CCCC)CCC(O)c1cc2c(Cl)cc(Cl)cc2c2cc(C(F)(F)F)ccc12 (stereo not given) | inconclusive: 21.1 µM [cytotoxic, partial curve] |  |
| O=S(=O)(Oc1ccc(Cl)cc1Cl)c1ccccc1 | inconclusive: 69.8 µM [cytotoxic, partial curve, poor fit] |  |
| C[C@]12CC[C@H]3C(=CCc4cc(O)ccc43)[C@@H]1CCC2=O | inconclusive: 61.1 µM [cytotoxic, partial curve, poor fit] |  |
| Nc1ccc(N)c(Cl)c1 | inconclusive: 68.5 µM [cytotoxic] |  |
| Cn1c(N)nc2nc[nH]c2c1=O | inconclusive: 60.4 µM [cytotoxic, partial curve, poor fit] |  |

| Structure (SMILES) | Potency | activity change, negative = cytotoxicity |
| --- | --- | --- |
| CC(=O)O[C@]1(C(C)=O)CC[C@H]2[C@@H]3C=C(Cl)C4=CC(=O)CC[C@]4(C)[C@H]3CC[C@@]21C | inconclusive: 68.5 µM [cytotoxic, single point] |  |
| N#CCc1ccc(Cl)cc1Cl |  | inactive: 4.68% |
| Cc1cccc(C)c1OCC(=O)N[C@@H](Cc1ccccc1)[C@@H](O)C[C@H](Cc1ccccc1)NC(=O)[C@H](C(C)C)N1CCCNC1=O | inconclusive: 26.6 µM [cytotoxic, partial curve] |  |
| Cc1cc(=O)c2c(O)c3c(O)cc(=O)c4c3c3c(cc(O)c1c23)C(C)(C)C=4O | active: 1.46 µM |  |
| CCCCCCCCCCCCSC#N |  | inactive: -2.28% |
| COc1ccc2sc(C(=O)Nc3nnn[nH]3)c(OC(C)C)c2c1 | inconclusive: 34.2 µM [cytotoxic, partial curve] |  |
| C[n+]1c2cc(N)ccc2cc2ccc(N)cc21 (tested in a mixture with another compound) | inconclusive: 26.6 µM [rising, partial curve] |  |
| CC[C@H]1CN2CCc3cc(OC)c(OC)cc3[C@@H]2C[C@@H]1C[C@H]1NCCc2cc(OC)c(OC)cc21 | inconclusive: 0.335 µM [cytotoxic, full curve] |  |
| COc1cccc(O)c1O | inconclusive: 71.2 µM [cytotoxic, single point] |  |
| Cc1ccc([N+](=O)[O-])c(N)c1 | inconclusive: 53.2 µM [cytotoxic, partial curve, poor fit] |  |
| Nc1cc(S(=O)(=O)O)cc2cc(S(=O)(=O)O)cc(O)c12 | active: 27.3 µM |  |
| Cc1ccc(C(=O)c2cc(O)c(O)c([N+](=O)[O-])c2)cc1 | active: 54.5 µM and active: 29.8 µM |  |
| C#C[C@]1(O)CC[C@H]2[C@@H]3[C@H](C)CC4=C(CCC(=O)C4)[C@H]3CC[C@@]21C |  | inactive: 0.485% [at 42.5 µM] |
| Cn1cnc([N+](=O)[O-])c1Sc1ncnc2nc[nH]c12 | inconclusive: 21.5 µM [cytotoxic, partial curve] |  |
| Cc1c(C2(c3cc(Br)c(O)c(Br)c3C)OS(=O)(=O)c3ccccc32)cc(Br)c(O)c1Br | active: 14.9 µM |  |
| Cc1cc(O)ccc1O | inconclusive: 69.4 µM [cytotoxic, partial curve, poor fit] |  |
| Nc1ccc(O)c(N)c1 | inconclusive: 68.1 µM [cytotoxic, single point] and inconclusive: 61.1 µM [cytotoxic] |  |
| CC1=C(/C=C/C(C)=C/C=C/C(C)=C/C(=O)O)C(C)(C)CCC1 | inconclusive: 54.5 µM [cytotoxic, partial curve] and inconclusive: 68.5 µM [cytotoxic, partial curve, poor fit] |  |
| Nc1ccc(N=Nc2ccccc2)c(N)c1 | active: 26.7 µM |  |
| CCC(C)(C)OC |  | inactive: -1.49% |
